PubChem BioAssay AID1240 (Sanford-Burnham Center for Chemical Genomics, 2008)
Among all 50,000 compounds or so, about 800 (1.6%) showed an effect of 50% or more. The list shows a part of the results.

These compounds were tested against Bcl-2-like protein 10 (Homo sapiens) (UniProt Q9HD36) (assay: TR3 peptide-Bcl-B binding displacers, biochemical primary FP assay, phenotype converters (AID 1240;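 note: 0% = Bcl-B with tracer peptide and DMSO and 100% = tracer peptide lacking Bcl-B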)). Settings: GST-Bcl-B / FITC-TR3 peptide fluorescence polarization; stronger effect = higher value; compound at 3.75 mg/L.
Sequence of UniProt Q9HD36 (Q9HD36 whole entry, looked up): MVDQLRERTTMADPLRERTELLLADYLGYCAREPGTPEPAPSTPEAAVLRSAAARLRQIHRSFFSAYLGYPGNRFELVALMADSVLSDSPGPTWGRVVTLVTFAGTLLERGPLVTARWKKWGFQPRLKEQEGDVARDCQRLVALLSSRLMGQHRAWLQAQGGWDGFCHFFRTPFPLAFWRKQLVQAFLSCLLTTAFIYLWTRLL

For `COc1cc(C=C2C(=O)NC(=S)NC2=O)ccc1OCc1ccc(Cl)cc1`, which displacement is on record?
The displacement was -4.6%.

With `CCN(CC)C(=O)CN(c1cc(Cl)cc(Cl)c1)S(C)(=O)=O` as the compound, how does the displacement read?
The displacement was 10%.

With `O=C(Nc1ccc2c(c1)OCO2)c1cnn2c1NC(c1cccs1)CC2C(F)(F)F` (centres undefined) as the compound, how does the displacement read?
The displacement was 3.6%.

With `Cc1ccc(C(=O)Nc2ccc(C(N)=O)cc2)cc1[N+](=O)[O-]` as the compound, how does the displacement read?
Its displacement is 0.4%.

For `O=C1C(=C2c3ccccc3C(=O)C2C2c3ccccc3Oc3ccccc32)C(=O)c2ccccc21` (centres undefined), which displacement is on record?
Its displacement is 15%.

For `CC(C)Cc1ccc(C(=O)NCC2OCCc3ccccc32)cc1` (centres undefined), which displacement is on record?
Its displacement is -6%.

How did the displacement turn out when `COc1ccccc1NC(=O)c1cnn(-c2ccccc2)c1NC(C)=O` was run?
Its displacement is -11.2%.

How did the displacement turn out when `CCOC(=O)C(=CNc1ccc(O)cc1)C(=O)OCC` was run?
Its displacement is -5.8%.

Which displacement does the source give for `COc1ccc(/C=C2\C(=O)NC(=O)N(c3cc(C)cc(C)c3)C2=O)cc1I` here?
Its displacement is 9.1%.

For `N#C/C(=C\c1ccco1)c1nc(-c2ccccc2)cs1`, which displacement is on record?
Its displacement is 58.3%.

`COC(=O)C1=C(C)N(C)C(C)=C(C(=O)OC)C1c1ccc(F)c(Br)c1` was tested. Which displacement did it give?
The displacement was -3.1%.

With `Cc1ccc(C(O)(C(=O)NCc2ccccc2)c2ccc(C)cc2)cc1` as the compound, how does the displacement read?
Its displacement is 1.8%.

Which displacement does the source give for `CCOC(=O)C1=C(C)N=c2s/c(=C\c3c(OC)ccc4ccccc34)c(=O)n2C1c1ccc2c(c1)OCO2` (centres undefined) here?
The displacement was -1.2%.

`CCCOc1ccc(/C=N/N2CCN(Cc3ccccc3Cl)CC2)cc1` was tested. Which displacement did it give?
The displacement was 14.3%.

`Cc1ccc(-c2ccccc2N)o1` was tested. Which displacement did it give?
The displacement was 6.5%.

`O=C(CSc1nnc(-c2ccc(Cl)cc2)n1-c1ccccc1)N/N=C/c1ccc([N+](=O)[O-])cc1` was tested. Which displacement did it give?
Its displacement is 1.8%.

For `Cc1c(CN(C)C)c2c(n1Cc1ccccc1)C(=O)c1ccccc1-2`, which displacement is on record?
Its displacement is 6.2%.

Which displacement does the source give for `Cc1ccc(N=Nc2cc(-c3ccccc3)sc2O)c(C)c1` here?
Its displacement is -6%.

For `C/C(=N\NC(=O)c1ccccn1)c1ccco1`, which displacement is on record?
Its displacement is -3.1%.

For `CC(=O)N/C(=C\c1ccccc1)C(=O)N1CCCCCC1`, which displacement is on record?
The displacement was -7.3%.

For `CCC(Oc1ccccc1)C(=O)Nc1ccc(Cl)c([N+](=O)[O-])c1` (centres undefined), which displacement is on record?
The displacement was -11.8%.

How did the displacement turn out when `COc1cc(C=NN2CCN(c3ccccn3)CC2)ccc1OCc1ccccc1` was run?
The displacement was -10.1%.

With `CCc1ccc(/C=C(/NC(C)=O)C(=O)O)s1` as the compound, how does the displacement read?
The displacement was -5.2%.

Which displacement does the source give for `Cc1ccc(N2C(=O)c3cccc4c(C(=O)O)ccc(c34)C2=O)cc1` here?
Its displacement is 1.2%.

`COC(=O)c1ccc(Oc2cc(C)nc(-n3nc(C)cc3C)n2)cc1` was tested. Which displacement did it give?
The displacement was -5.2%.

For `Cc1cccc(OCC(=O)Nc2cccc(C(F)(F)F)c2)c1C`, which displacement is on record?
The displacement was -5.1%.

With `Cc1ccc(C(=O)Nc2cccc(C(F)(F)F)c2)o1` as the compound, how does the displacement read?
The displacement was -1.9%.

For `O=C(Nc1cccnc1)c1ccc(-c2ccccc2[N+](=O)[O-])o1`, which displacement is on record?
The displacement was 48.4%.

How did the displacement turn out when `CC(=O)CC(C)(C)Nc1ccccc1` was run?
The displacement was 12.4%.

How did the displacement turn out when `CC(=O)NNc1nc2c(c(=O)[nH]c(=O)n2C)n1CCc1ccccc1` was run?
The displacement was 11%.

With `CCCc1[nH]nc2c1C(C1CCCCC1)C(C#N)=C(N)O2` (centres undefined) as the compound, how does the displacement read?
The displacement was -12.1%.

Which displacement does the source give for `CCc1c(C)sc(NC(=O)Cc2ccc(Cl)cc2)c1C#N` here?
The displacement was 0.1%.

For `CN1CCN(CCC(=O)N/N=C/c2cccnc2)CC1`, which displacement is on record?
The displacement was -12.3%.

`COC(=O)c1ccc(OCC(=O)Nc2nc3c(s2)CCCC3)cc1` was tested. Which displacement did it give?
Its displacement is 2.4%.

For `O=C1NC(=S)S/C1=C/c1ccc(Oc2ccc(C(F)(F)F)cc2[N+](=O)[O-])c(Cl)c1`, which displacement is on record?
Its displacement is 2.8%.

How did the displacement turn out when `COc1ccc(CN2CCN(c3c4c(c(C#N)c5nc6ccccc6n35)CCC4)CC2)cc1` was run?
The displacement was -6%.

For `CCc1ccc(NC(=O)COc2ccc(Br)cc2)cc1`, which displacement is on record?
The displacement was -1.3%.

For `N/C(=N\S(=O)(=O)c1ccc(Cl)cc1)c1ccc(Cl)cc1`, which displacement is on record?
Its displacement is 6.4%.

With `Cc1cccn2c(=O)c(/C=N/NC(=O)c3ccccc3O)c(N3CCCCC3)nc12` as the compound, how does the displacement read?
The displacement was 130%.

`O=C(Nc1ccccn1)c1ccc2c(c1)C(=O)N(N1C(=O)c3ccccc3C1=O)C2=O` was tested. Which displacement did it give?
Its displacement is 2.7%.

With `Cc1cc(C)c2nc3s/c(=C\c4ccccc4)c(=O)n3c2c1` as the compound, how does the displacement read?
Its displacement is 7%.

Which displacement does the source give for `Cc1c(NC(=O)c2cccc3c2C(=O)c2cc(I)ccc2-3)c(=O)n(-c2ccccc2)n1C` here?
Its displacement is 5.8%.

How did the displacement turn out when `COc1ccc(C2/C(=C(/O)c3ccccc3)C(=O)C(=O)N2CC2CCCO2)cc1` (centres undefined) was run?
The displacement was 6.6%.

How did the displacement turn out when `COc1ccc(OC)c(CN2CCN(C(=O)c3cccc(Cl)c3)CC2)c1` was run?
The displacement was -33.4%.

With `COc1cc(OC)c([N+](=O)[O-])cc1C=O` as the compound, how does the displacement read?
The displacement was 14.8%.

How did the displacement turn out when `Cc1ccccc1OCCNc1cc(N2CCCCC2)ccc1[N+](=O)[O-]` was run?
The displacement was 7.3%.

Which displacement does the source give for `O=[N+]([O-])c1cccc2c1=C1C(Cl)=CC=C1C=2` here?
The displacement was 7.8%.

For `Cc1ccc([N+](=O)[O-])cc1NC(=O)c1c(-c2ccccc2)noc1C`, which displacement is on record?
Its displacement is 1%.

`CC1(C)CCCC2=C1CC1C(=O)N(c3ccccc3)C(=O)C1C2` (centres undefined) was tested. Which displacement did it give?
The displacement was 1.9%.

With `COc1ccc2oc(=O)c(-c3cnc(Nc4ccccc4C)s3)cc2c1` as the compound, how does the displacement read?
Its displacement is 10.1%.

With `Cc1cc(C=C2C(=O)NC(=S)NC2=O)c(C)n1-c1ccc(N2CCOCC2)cc1` as the compound, how does the displacement read?
The displacement was 22.3%.

Which displacement does the source give for `CC(=O)NC(=Nc1nc(C)c2cc(C)cc(C)c2n1)NC(C)=O` here?
Its displacement is 8.1%.

With `Cc1ccc(C(=O)N/C(=C\c2sccc2C)C(=O)NCc2ccco2)cc1` as the compound, how does the displacement read?
Its displacement is 7.6%.

For `COc1ccc(N(CC(=O)NCc2cccnc2)S(=O)(=O)c2ccccc2[N+](=O)[O-])c(OC)c1`, which displacement is on record?
Its displacement is 13.1%.

`O=C(/C=C/c1ccco1)NCc1ccc(Cl)cc1` was tested. Which displacement did it give?
The displacement was -13.9%.

Which displacement does the source give for `CC(=O)N(c1ccccc1)c1nnc(C)s1` here?
The displacement was -0.3%.

How did the displacement turn out when `CC1=C(C(=O)OCCCc2ccccc2)C(c2ccccc2[N+](=O)[O-])CC(=O)N1` (centres undefined) was run?
Its displacement is -9.2%.

`COc1ccc(N2C(=O)CC(SC(=N)N3N=C(c4cccs4)CC3c3ccc(Br)cc3)C2=O)cc1` (centres undefined) was tested. Which displacement did it give?
The displacement was 3.5%.

With `CCOC(=O)c1c(-c2ccc(Cl)cc2)csc1NC(=O)COc1ccccc1OC` as the compound, how does the displacement read?
Its displacement is 5.3%.

Which displacement does the source give for `COc1ccc(N=Cc2c(O)n(-c3ccccc3Cl)c(=O)[nH]c2=O)cc1` here?
The displacement was 0%.

`CCOC(=O)c1cnn(-c2ccccc2)c1NC(=O)c1ccc(C)cc1` was tested. Which displacement did it give?
The displacement was 7.2%.

How did the displacement turn out when `Cc1cc(Cn2ccnc2)c(C)cc1Cn1ccnc1` was run?
The displacement was 3.2%.

`Cc1ccc(C(C)C)c(OCC(=O)Nc2ccc(Cc3ccncc3)cc2)c1` was tested. Which displacement did it give?
The displacement was -1.9%.

For `COc1ccc(N(CC(=O)Nc2ccc(C)c(C)c2)S(C)(=O)=O)cc1`, which displacement is on record?
The displacement was 0.1%.

With `O=C(/C=C/c1ccc(-c2cccc(Br)c2)o1)c1ccco1` as the compound, how does the displacement read?
The displacement was 11.8%.

With `O=C(Nc1ccc(S(=O)(=O)Nc2nccs2)cc1)c1ccc2ccccc2c1` as the compound, how does the displacement read?
Its displacement is 8%.

With `N/C(=N\OC(=O)c1cccc(Br)c1)c1ccccn1` as the compound, how does the displacement read?
The displacement was 1.1%.

Which displacement does the source give for `Cc1cc(C)nc(N2CCN(c3ncnc4c3cnn4-c3ccccc3)CC2)n1` here?
Its displacement is 2.6%.

Which displacement does the source give for `O=c1sc(/C=C2/C=Nc3ccccc32)c(O)n1-c1ccccc1` here?
The displacement was -1%.
